For data set [1], the system named is A431/CCKBR cells. The settings on record: for membrane-bound activity of [177Lu]Lu-PP-F11N: 100 nM RAD001 or 10 mM metformin vs control.
The test system of data set [2] is A431/CCKBR-tumor bearing nude mice. Briefly: Biodistribution of [177Lu]Lu-PP-F11N. The settings on record: for tumor uptake of [177Lu]Lu-PP-F11N, ratio [treatment/Control]: 5 daily i.p. doses, RAD001 3 mg/kg or metformin 200 mg/kg.
Data set [3] shares this test system. Briefly: SPECT/CT imaging and quantification. The settings on record: 2 h after i.v. injection, 4 tumors per group. The protocol:
For SPECT/CT imaging, [^177Lu]Lu-PP-F11N was purified by HPLC and 0.2 nmol of radiolabeled [^177Lu]Lu-PP-F11N was diluted in PBS (10 MBq in 100 µl). Two hours after i.v. injection, mice were sacrificed and subjected to 10 min X-ray computed tomography (CT) followed by 5 h single-photon emission computed tomography (SPECT) using a multipinhole small-animal NanoSPECT/CT camera (Mediso Medical Imaging Systems). Image reconstruction and quantification was accomplished by using connecting thresholding and Otsu method (VivoQuant 3.0 Patch1).

The subject of data set [4] is A431/CCKBR cells. Briefly: Kinase inhibitor library screen: [177Lu]Lu-PP-F11N cell uptake. Particulars: 10 μM.
For data set [5], the system named is β-arrestin-1 recruitment to CCKBR. Put plainly: Split luciferase arrestin recruitment assay. As for the experimental part: (§1) Cells at 70-90% confluence on the 6-well plate were transfected with 2 μg per well of each pSI-AGR10 plasmid, [25] with subcloned human 114-βArrestin-1, 114-βArrestin-2, 11S-CAAX and CCKBR by using Lipofectamine 3000 according to the manufacturer's recommendations. Twenty-four h after transfection, 100,000 cells per well were plated into a 96-well plate (Perkin Elmer) and the cells were treated with RAD001 for 20 h. On the next day, the medium was exchanged to DMEM w/o phenol red (Bioconcept), supplemented with 20mM HEPES pH 7.0, 1% furimazine and 19% LCS dilution buffer (Nano-Glo® Live Cell Assay System, Promega) and a white cover was attached to the transparent bottom of the 96-well plate. Cells were stimulated with 1 µM of PP-F11N and the luminescence was measured using a PHERAstar FSX (BMG Labtech). After the recruitment assay, Hoechst fluorescence was measured to control cell number. Briefly, the microplates were frozen at -80°C for 1 h and 100 µl of dH2O was added to each well followed by 1 h incubation at 37°C. Then, the plates were placed at -80°C until frozen and thawed to RT. Next, per each well 100 µL of aqueous Hoechst 33258 (Sigma) diluted to a final concentration of 5 ug/ml in TNE buffer (10 mM Tris, 2 M NaCl, 1 mM EDTA, pH 7.4) was added and the fluorescence was measured using optic filters centred on 360 and 460 nm for excitation and emission, respectively.
Background: Arrestin recruitment assays detect the binding of arrestin to an activated receptor.

The subject of data set [6] is β-arrestin-2 recruitment to CCKBR. Put plainly: Split luciferase arrestin recruitment assay. As for the experimental part: as §1
The subject of the next data set is ERK1/2 phosphorylation. Briefly: WB analysis of phospho-ERK1/2. The class given is cell-based, human. The protocol:
Antibodies against phospho-S6 at S235/S236 (D57.2.2F), ERK1/2 (9102), phospho-ERK1/2 (T202/Y204), GAPDH (14C10) and HA-Tag (C29F4) were obtained from Cell Signaling Technology, whereas the anti-CCKBR (ab77077) was from Abcam. Cells were homogenized in lysis buffer (50 mM Tris-HCl pH 7.5, 150 mM NaCl, 1% Triton X, 0.1% SDS supplemented with 1 mM sodium orthovanadate, 1 mM NaF and protease inhibitor cocktail (Roche)). 50 μg of total protein lysates were separated by SDS-PAGE and transferred to PVDF membranes (Millipore) by electroblotting. Membranes were blocked with 5% skim milk in TBST (0.1% Tween 20) for 1 h, and incubated with 2% BSA in TBST overnight with the primary antibody followed by 2 h incubation with HRP-conjugated secondary antibody. Signals were produced by using a chemiluminescence reagent (ECL) and acquired by ImageQuant RT ECL Imager (GE Healthcare). Prior to CCKBR detection by WB, protein lysates were subjected to deglycosylation. Briefly, 18 μL of total protein lysates (50 µg) were mixed with 2 μL of 10× denaturing buffer (5% SDS, 0.4 M DTT) and incubated for 10 min at RT. Next, 4 μL of 10× Glycobuffer (0.5 M sodium phosphate, pH 7.5), 4 μL of 10% Tween-20 and 10 μL of water were added. Finally, 2 μL of PNGase F (Sigma) was added and the reaction was carried out for 16 h at 37°C.

Setting [7] is: treated mice, 5 days, 4 h post injection, mean.

Regarding `CO[C@H]1C[C@@H]2CC[C@@H](C)[C@@](O)(O2)C(=O)C(=O)N2CCCC[C@H]2C(=O)O[C@H]([C@H](C)C[C@@H]2CC[C@@H](OCCO)[C@H](OC)C2)CC(=O)[C@H](C)/C=C(\C)[C@@H](O)[C@@H](OC)C(=O)[C@H](C)C[C@H](C)/C=C/C=C/C=C/1C` [RAD001, Everolimus], the “membrane-bound activity of [177Lu]Lu-PP-F11N” value with A431/CCKBR cells [1] is “no significant difference”. Also, the “uptake of [177Lu]Lu-PP-F11N” value in the data set with A431/CCKBR cells [1] (20 h incubation with 50, 100 and 200 nM RAD001) was “increased uptake”. The “tumor uptake of [177Lu]Lu-PP-F11N, ratio [RAD001/Control]” value in data set [2] (3 daily RAD001 doses, 3 mg/kg i.p., 4 h p.i.) is 1.56. Moreover, the “tumor uptake of [177Lu]Lu-PP-F11N, ratio [treatment/Control]” value (from here on “tumor uptake … ratio [treatment/Control]”) in data set [2] (4 h p.i.) is 1.79. In addition, the “Uptake [% i.A./g] of [177Lu]Lu-PP-F11N, Tumor” value in data set [2] (treated mice (RAD001 3 mg/kg or metformin 200 mg/kg i.p. daily 5 days), 4 h post injection, mean) was determined as 19.56 % i.A./g. For the same compound, in data set [2] (setting [7]), the “Uptake [% i.A./g] of [177Lu]Lu-PP-F11N, Blood” value stood at 0.04 % i.A./g; the “Uptake [% i.A./g] of [177Lu]Lu-PP-F11N, Bone” value is recorded as 0.19 % i.A./g; the “Uptake [% i.A./g] of [177Lu]Lu-PP-F11N, Brain” value was 0.008 % i.A./g; the “Uptake [% i.A./g] of [177Lu]Lu-PP-F11N, Heart” value was 0.031 % i.A./g. In addition, in data set [2] (setting [7]), the “Uptake [% i.A./g] of [177Lu]Lu-PP-F11N, Intestines” value came out at 0.11 % i.A./g; the “Uptake [% i.A./g] of [177Lu]Lu-PP-F11N, Kidney” value was 3.22 % i.A./g; the “Uptake [% i.A./g] of [177Lu]Lu-PP-F11N, Liver” value is recorded as 0.17 % i.A./g; the “Uptake [% i.A./g] of [177Lu]Lu-PP-F11N, Lung” value was 0.06 % i.A./g. Further, in data set [2] (setting [7]), the “Uptake [% i.A./g] of [177Lu]Lu-PP-F11N, Muscle” value was 0.05 % i.A./g; the “Uptake [% i.A./g] of [177Lu]Lu-PP-F11N, Pancreas” value was 0.17 % i.A./g; the “Uptake [% i.A./g] of [177Lu]Lu-PP-F11N, Spleen” value is given as 0.08 % i.A./g; the “Uptake [% i.A./g] of [177Lu]Lu-PP-F11N, Stomach” value was found to be 0.80 % i.A./g. Moreover, in data set [3], the “ratio [treatment/Control] of the average concentration of [177Lu]Lu-PP-F11N in tumors” value came to 3.11 and the “ratio [treatment/Control] of the maximum concentration of [177Lu]Lu-PP-F11N in tumors” value is 3.17.

Turning to `CO[C@H]1C[C@@H]2CC[C@@H](C)[C@@](O)(O2)C(=O)C(=O)N2CCCC[C@H]2C(=O)O[C@H]([C@H](C)C[C@@H]2CC[C@@H](O)[C@H](OC)C2)CC(=O)[C@H](C)/C=C(\C)[C@@H](O)[C@@H](OC)C(=O)[C@H](C)C[C@H](C)/C=C/C=C/C=C/1C` [Rapamycin], the “enhancement of [177Lu]Lu-PP-F11N cell uptake compared to untreated control cells” value in the data set with A431/CCKBR cells [4] is recorded as 24-26%.

On to `O=C(O)c1ccc2nc(-c3ccccc3)c(-c3ccccc3)nc2c1` [BML-257], for which the “enhancement of [177Lu]Lu-PP-F11N cell uptake compared to untreated control cells” value in the data set on A431/CCKBR cells [4] is on record as 24-26%.

As to `CCCC[C@H](NC(=O)[C@H](Cc1c[nH]c2ccccc12)NC(=O)CNC(=O)[C@H](Cc1ccc(O)cc1)NC(=O)[C@H](C)NC(=O)[C@@H](CCC(=O)O)NC(=O)[C@@H](CCC(=O)O)NC(=O)[C@@H](CCC(=O)O)NC(=O)[C@@H](CCC(=O)O)NC(=O)[C@@H](CCC(=O)O)NC(=O)[C@@H](CCC(=O)O)NC(=O)CN1CCN(CC(=O)O)CCN(CC(=O)O)CCN(CC(=O)O)CC1)C(=O)N[C@@H](CC(=O)O)C(=O)N[C@@H](Cc1ccccc1)C(N)=O` [PP-F11N, DOTA-(DGlu)6-Ala-Tyr-Gly-Trp-Nle-Asp-Phe-NH2], the “recruitment of β-arrestin-1 to CCKBR” value in data set [5] was “triggered recruitment”. The “recruitment of β-arrestin-2 to CCKBR” value in data set [6] is reported as “stronger interaction”. In the data set on ERK1/2 phosphorylation, the “phosphorylation of ERK1/2 (WB)” value is “increased phosphorylation”.

Consider `CN(C)C(=N)N=C(N)N` [Metformin, metformin], for which, in the data set on A431/CCKBR cells [1], the “membrane-bound activity of [177Lu]Lu-PP-F11N” value is given as “no significant difference”. In addition, in data set [2] (4 h p.i.), the “tumor uptake … ratio [treatment/Control]” value was determined as 1.14. For the same compound, in data set [2] (4 h p.i., listed as metformin), the “tumor uptake … ratio [treatment/Control]” value is listed as “did not show a significant difference”. For the same compound, in data set [2] (setting [7]), the “Uptake [% i.A./g] of [177Lu]Lu-PP-F11N, Bone” value worked out at 0.25 % i.A./g; the “Uptake [% i.A./g] of [177Lu]Lu-PP-F11N, Brain” value is listed as 0.007 % i.A./g; the “Uptake [% i.A./g] of [177Lu]Lu-PP-F11N, Heart” value is 0.04 % i.A./g; the “Uptake [% i.A./g] of [177Lu]Lu-PP-F11N, Intestines” value stood at 0.11 % i.A./g. In addition, in data set [2] (setting [7]), the “Uptake [% i.A./g] of [177Lu]Lu-PP-F11N, Kidney” value was 3.19 % i.A./g and the “Uptake [% i.A./g] of [177Lu]Lu-PP-F11N, Liver” value came out at 0.16 % i.A./g. In addition, in data set [3], the “ratio [treatment/Control] of the average concentration of [177Lu]Lu-PP-F11N in tumors” value is 1.03 and the “ratio [treatment/Control] of the maximum concentration of [177Lu]Lu-PP-F11N in tumors” value was found to be 1.17.

For the origin of these results see PMC7532663, “Pharmacological inhibition of mTORC1 increases CCKBR-specific tumor uptake of radiolabeled minigastrin analogue [^177Lu]Lu-PP-F11N” (Theranostics, 2020).
